{"source": "PubChem BioAssay (Tox21)", "note": "Several values for one entry are separate records, joined by “and”; a condition that tells them apart may be missing. Identical values can stand only once. The inconclusive results got no clear call from the source; some entries with a clear call stand among them for comparison. Potencies of inconclusive entries are doubtful fits and often do not repeat. Activity calls are given as the source filed them. Calls follow the shape of the dose curve; as a rule, active = well fitted cell-killing curve with a large enough effect in the repeat runs; inconclusive = weak or mixed curves; inactive = flat fitted curve, though single readings scatter. Potency is read from the fitted curve at half-maximal effect; tags tell the direction and shape of the fitted curve."}
{"assay": "qHTS assay to identify small molecule antagonists of the estrogen receptor beta (ER-beta) signaling pathway - cell viability counter screen (AID 1259382); also: nearly all actives have a fitted effect of over 55% in size", "details": "ER-beta-UAS-bla HEK293T viability, CellTiter-Glo luminescence, 16 h; series mostly up to 92.4 µM", "outline": "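ER-beta-UAS-bla HEK293T cells in 2% charcoal-stripped FBS medium, treated with compound plus 1 nM 17-beta-estradiol for 16 h at 37C. Viability read by CellTiter-Glo luminescence after 30 min at room temperature in the same wells.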"}
{"smiles": "CC(C)(N=C=O)c1cccc(C(C)(C)N=C=O)c1", "Potency": "inconclusive: 68 µM [cytotoxic, partial curve, poor fit]"}
{"smiles": "CC(C)n1c(/C=C/[C@@H](O)C[C@@H](O)CC(=O)O)c(-c2ccc(F)cc2)c2ccccc21", "Potency": "active: 15.4 µM and inconclusive: 13.3 µM [cytotoxic, partial curve]"}
{"smiles": "CCCCCCCCCCCCCCCCCCO", "Potency": "inactive"}
{"smiles": "CCC(C)COC(=O)CC(C)C", "note": "(stereo not given)", "Potency": "inconclusive: 12.2 µM [cytotoxic, full curve]"}
{"smiles": "C[C@]12CC[C@@H]3c4ccc(O)cc4CC[C@H]3[C@@H]1CC[C@@H]2O", "Potency": "inconclusive: 15.3 µM [cytotoxic, full curve]"}
{"smiles": "O=C(O)C[C@H](O)C[C@H](O)/C=C/c1c(C2CC2)nc2ccccc2c1-c1ccc(F)cc1", "Potency": "inconclusive: 1.03 µM [cytotoxic, full curve, poor fit]"}
{"smiles": "Cc1ccc(C(C)OC(=O)C2(C)CCC(C(=O)O)C2(C)C)cc1", "note": "(stereo not given)", "Potency": "inactive"}
{"smiles": "Nc1cc([N+](=O)[O-])ccc1C(=O)O", "Potency": "inactive"}
{"smiles": "O=Cc1c(Cl)cccc1Cl", "Potency": "inactive"}
{"smiles": "CCCCCCCCCCCCS", "Potency": "inactive"}
{"smiles": "COc1ccc2nc(N)sc2c1", "Potency": "inactive"}
{"smiles": "c1cnccn1", "Potency": "inactive"}
{"smiles": "Brc1c2ccccc2cc2ccccc12", "Potency": "inconclusive: 61.8 µM [cytotoxic, partial curve, poor fit]"}
{"smiles": "O=S(=O)(O)c1ccc(N=Nc2c(O)ccc3ccccc23)cc1", "Potency": "inconclusive: 21.7 µM [cytotoxic, partial curve]"}
{"smiles": "CC(=O)S[C@@H]1CC2=CC(=O)CC[C@]2(C)[C@H]2CC[C@@]3(C)[C@@H](CC[C@@]34CCC(=O)O4)[C@H]12", "Potency": "inconclusive: 30.6 µM [cytotoxic, partial curve]"}
